These results are taken from the RNAGym collection of RNA variant scans (doi:10.1073/pnas.2313332121).

The labels stand for the following.
B1: TPR 5TU (parent)
chain: GGAUCUUCUCGAUCUAACAAAAAAGACAAAUCUGCCACAAAGCUUGAGAGCAUCUUCGGAUGCAGAGGCGGCAGCCUUCGGUGGCGCGAUAGCGCCAACGUUCUCAACUAUGACACGCAAAACGCGUGCUCCGUUGAAUGGAGUUUAUCAUG

Variants at the floor of the assay are shown more often than the library holds them. A value given as a limit tells only on which side of the number the result lay.

The variants in this series derive from B1. Briefly: polymerase ribozyme fitness, log enrichment relative to wild type (log ratio); higher = more active; in vitro selection for triplet polymerase activity. Summed up: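 A single round of triplicate in vitro selection, including frozen incubation at −7 °C, was applied to PCR-built, transcribed mutant libraries of each subunit of a heterodimeric triplet polymerase ribozyme. Illumina sequencing of input and output libraries retained genotypes with ≥10 input reads and ≥1 read per output. Fitness is the base-2 logarithm of genotype enrichment divided by wild-type enrichment, from inverse-variance-weighted replicate averages.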
For the variant C10G U13A A73G G84U C99G A107U U139C, the “polymerase ribozyme fitness (log ratio)” value was ≤ -4.2. Consider G11C A52C G84C C85G G88A, for which the “polymerase ribozyme fitness (log ratio)” value was ≤ -4.2. Turning to C10A A49C C57U G59A C69U G84A A98G, the “polymerase ribozyme fitness (log ratio)” value was ≤ -4.2.

For the variant C10U C14U A23U C43U G46C C79A C87G C125A, the “polymerase ribozyme fitness (log ratio)” value is ≤ -4.2. As to C10A A17C A41C A52C U53A C54U A60G U61A, the “polymerase ribozyme fitness (log ratio)” value was ≤ -4.2. On to U9G A47U U55G C76G U77A A91C G92A G112C, for which the “polymerase ribozyme fitness (log ratio)” value is ≤ -4.2. In the case of C10A C14U C93G C149U, the “polymerase ribozyme fitness (log ratio)” value was ≤ -4.2. The value for G11A A16C A21G C36A U53A G70A A98U A138G A150U was ≤ -4.2; that for C10U U45A U53A C54A C85G U144G was ≤ -4.2. Turning to U9G A16C G80C G128U, the “polymerase ribozyme fitness (log ratio)” value was ≤ -4.2. For the variant G11A A16U A24U C85A A142C, the “polymerase ribozyme fitness (log ratio)” value is ≤ -4.2. With C10U U31G U56A C85G C95U U144A U146C the figure was ≤ -4.2; with G11C A37U U55A A60C G68C G80A G92U G94C U148A, ≤ -4.2.

Take C10U A39G G48A A66U G74U C75G C105A: the “polymerase ribozyme fitness (log ratio)” value was ≤ -4.2. As to C10U C35G G58A A91U A119C U139A G143U U148G, the “polymerase ribozyme fitness (log ratio)” value was ≤ -4.2. The value for U9G A66U C75G C85U G94A G143C was ≤ -4.2.

In the case of C10U A29U A40U C93U G141U, the “polymerase ribozyme fitness (log ratio)” value is ≤ -4.2. The value for C10G A21U C36U A39U C93A G126A was ≤ -4.2. Regarding G11C A115C, the “polymerase ribozyme fitness (log ratio)” value was -2.86. In the case of U9G G88A C125G, the “polymerase ribozyme fitness (log ratio)” value was ≤ -4.2.

Regarding C10A A12G A73G U77A C93U, the “polymerase ribozyme fitness (log ratio)” value is ≤ -4.2. For C10G A22U A26G C63U, the “polymerase ribozyme fitness (log ratio)” value is ≤ -4.2. C10G A37U C96A: the “polymerase ribozyme fitness (log ratio)” value was ≤ -4.2. G11A U61A U82G G84C: the “polymerase ribozyme fitness (log ratio)” value was ≤ -4.2. On to C10G A30C G92U A107G U148C A150U, for which the “polymerase ribozyme fitness (log ratio)” value is ≤ -4.2.

On to C10U C35U A47C C85A A89C C93U C95U, for which the “polymerase ribozyme fitness (log ratio)” value is ≤ -4.2. C10U G46A G67U C79G U102G C105A U127A: the “polymerase ribozyme fitness (log ratio)” value is ≤ -4.2.

In the case of C10U A17G U77A G83U A98C U101C A106U U111G, the “polymerase ribozyme fitness (log ratio)” value is ≤ -4.2. On to C10U A29G U53A A66U C79U C96U, for which the “polymerase ribozyme fitness (log ratio)” value is ≤ -4.2.

Turning to G11C C32G A49C G86A G88U G133A, the “polymerase ribozyme fitness (log ratio)” value was ≤ -4.2. With C10U A16U A97U U109A A137G the figure was ≤ -4.2. C10A A49U G65U G67A U130C U135G G136A U144G: the “polymerase ribozyme fitness (log ratio)” value was ≤ -4.2.

In the case of G11C A30U C87G G143U, the “polymerase ribozyme fitness (log ratio)” value was ≤ -4.2. Turning to U9G C96U, the “polymerase ribozyme fitness (log ratio)” value is -3.76. As to C10G A17U A22U G48A G59A U77G G86C C95U U148A, the “polymerase ribozyme fitness (log ratio)” value is ≤ -4.2. In the case of C10G A20U G59U U101G, the “polymerase ribozyme fitness (log ratio)” value is ≤ -4.2. With C10A A17C A49C C118U A137U C149U the figure was ≤ -4.2. As to C10G U53G C54A G86U, the “polymerase ribozyme fitness (log ratio)” value was ≤ -4.2. As to C10G C27G G59U G88A C123A, the “polymerase ribozyme fitness (log ratio)” value is ≤ -4.2. As for U9G U45G C57G A73G U101A C123A C129G, the “polymerase ribozyme fitness (log ratio)” value is ≤ -4.2. Take C10U A19C U45G C72G U90C U135G: the “polymerase ribozyme fitness (log ratio)” value is ≤ -4.2. On to C10G C93A, for which the “polymerase ribozyme fitness (log ratio)” value is ≤ -4.2. As to C10G C35U G58C A91G C95U C96A G100U, the “polymerase ribozyme fitness (log ratio)” value was ≤ -4.2. With C10G A19G A47C C79G the figure was ≤ -4.2; with C10G C27G A29G C36U U44G U56G C87A, ≤ -4.2; with U9C U56A C76A C108G G143U A150G, ≤ -4.2. As for U9G G25U G59A A60U G70U, the “polymerase ribozyme fitness (log ratio)” value was ≤ -4.2. For U9G C51U U56G C76U G88C, the “polymerase ribozyme fitness (log ratio)” value is ≤ -4.2. The value for C10U G124C U139G U148C was ≤ -4.2; that for G11A U53G C63U G88C G117A was ≤ -4.2; that for C10A G67C C93G C99G A137U U146A was ≤ -4.2. With U9G C27A C51U A73C C87U C95U C114G G141C U148G the figure was ≤ -4.2. With C10G C14U A49U G50A A64U C76A U90G C118U G128A the figure was ≤ -4.2; with U9G G86A A138G, ≤ -4.2; with C10A C51U C93U U111G, ≤ -4.2.

Regarding G11C A28U A40G G81U A89U C95U G141C, the “polymerase ribozyme fitness (log ratio)” value was ≤ -4.2. With C10G G25A A52C G59C C87A U101A U102G C123U U144C A150C the figure was ≤ -4.2; with C10U C32U G92A G94A C149A, ≤ -4.2. The value for C10U C32G U145C was -4.16; that for G11C C18G A24C A47G G68C G84A U104C G133U was ≤ -4.2. As to C10U A17G A20C G42A C76A C79A, the “polymerase ribozyme fitness (log ratio)” value was ≤ -4.2. As to U9C U15G G34A G50A C93U C125U, the “polymerase ribozyme fitness (log ratio)” value is ≤ -4.2. With U9G G11U U55G C57A G94U A142G the figure was ≤ -4.2; with U9G G68A U139C, ≤ -4.2; with C10U C93A, -3.86. Consider C10G A28C A29C C96G C99G, for which the “polymerase ribozyme fitness (log ratio)” value is ≤ -4.2.

Regarding U9G C79U C99U C103A C116G C125U, the “polymerase ribozyme fitness (log ratio)” value was ≤ -4.2. For G11A C43G U90C G94A, the “polymerase ribozyme fitness (log ratio)” value was -4.13. On to C10U A28U A60C C87A C96U, for which the “polymerase ribozyme fitness (log ratio)” value was ≤ -4.2.

As to C10U C32U A49C U134C, the “polymerase ribozyme fitness (log ratio)” value is ≤ -4.2.

With G11A C51G C57A C85U A89G A106U C118A A119G, the “polymerase ribozyme fitness (log ratio)” value was ≤ -4.2. As to C10U A73C C85A, the “polymerase ribozyme fitness (log ratio)” value is ≤ -4.2. With G11C A20U G86C C99G G136C U145G A147C, the “polymerase ribozyme fitness (log ratio)” value is ≤ -4.2. As to C10G C14G A16U A23U G50A C57G C93A C103G C108U A122U G141U, the “polymerase ribozyme fitness (log ratio)” value was ≤ -4.2.

For C10U G88U, the “polymerase ribozyme fitness (log ratio)” value is ≤ -4.2. Consider C10U C118U, for which the “polymerase ribozyme fitness (log ratio)” value was -2.81.

G11A C14G A30U U44A U45A G92U: the “polymerase ribozyme fitness (log ratio)” value was ≤ -4.2. Regarding C10U G42U A64U C93A A106U C123U G140A, the “polymerase ribozyme fitness (log ratio)” value was ≤ -4.2. G11C A19U A20U A29U G71A C96U C99U A113U C129A: the “polymerase ribozyme fitness (log ratio)” value is ≤ -4.2.

Take C10U G92A G141C: the “polymerase ribozyme fitness (log ratio)” value is -3.99. Take C10U U15C A29U C95U: the “polymerase ribozyme fitness (log ratio)” value was ≤ -4.2. For G11C A28G C36A G74C U145A, the “polymerase ribozyme fitness (log ratio)” value was ≤ -4.2. As to C10U U45A G88C U109G, the “polymerase ribozyme fitness (log ratio)” value was ≤ -4.2. Regarding U9G A19C U55A, the “polymerase ribozyme fitness (log ratio)” value is ≤ -4.2.
